To fix the notation:
B1: LINE1-mini (parent)
chain: GGCAGAGCUCAACACAGCGUGGCAAAGUGGCUGUGGCUAGACUGCC

Data on 167 variants can be found in the RNAGym collection of RNA variant scans (doi:10.7554/elife.90254).

Read counts are not given, so values of variants with three or more changes are uncertain.

This series covers variants of B1. The series is described as follows: self-cleavage, relative activity (ratio to wild type); higher = more cleavage; in vitro, sequencing; the parent is a self-cleaving ribozyme.
With A4C U9G G19A, the self-cleavage is 0.03. The value for A4G A12G A14C C18G was 0.

As to A4C G7U U9G G22U G44U, the self-cleavage was found to be 0.13.

In the case of A4G A12U G30A, the self-cleavage was found to be 0.14. For A4C C18U A25U U28A C37U the value was 0.04; for A4C G27A G29C, 0.54.

With A4C U9G U32C, the self-cleavage was 0.19. For A4C G7U C15U A24C C45A the value was 0.49; for A4G A24G A25G A26C G33U C46A, 0; for A4C C18G G21A U28G U32G U43A, 0. For A4G A25G G29U the value was 0.2. For the variant A4C U20G C23U G44C, the self-cleavage came out at 0.06.

As for A4C G5A C10G C13U G30A, the self-cleavage amounted to 0.01. The value for A4C G7U U38G was 0.03; that for A4G A14C G19C C23G G35U A39G was 0.01; that for A4C U38A G40A was 0.23. As for A4G A16U C45G, the self-cleavage was determined as 0.06.

A4C C18U G29C G33U: the self-cleavage is 0.09.

Take A4C U32A G35A C46U: the self-cleavage stood at 0.07. A4C G5C G7A A12C G17U A25G: the self-cleavage is 0.02. For A4C G17U A39C C46A the value was 0.06; for A4G A12U G27C A41U G44C, 0.04; for A4C G17A C31U, 0.03. On to A4C G22U C42G, for which the self-cleavage was determined as 0.05. For the variant A4G A16U A25C, the self-cleavage worked out at 0. For A4G A6G C10A G30A G36C the value was 0.03. For A4C C15U U32C the value was 0.15; for A4C U20G G30A, 0.07. For A4C G7U G29U U34G the value was 1.34; for A4G A14C G35A C37A C45A, 0.01; for A4C G5U A41U, 0.08.

As to A4C G17U G21A C45U, the self-cleavage worked out at 0.41. The value for A4C C13G C46A was 0.03; that for A4C G7C C10A A14G A16U was 0.03; that for A4C C10A G36U C46A was 0.07.

Consider A4G A14C G17A C23A U28A C37U U43A, for which the self-cleavage was 0. The value for A4C G30A U34A G36A was 0.02; that for A4C U43C C45A was 0.07; that for A4G A6U A11U G27U U34G C45G was 0.02. A4C C23U G33C: the self-cleavage turned out to be 0.03. For A4C U34C C45A the value was 0.01; for A4G A6C A14C A25U U34A C42U, 0.14. Regarding A4C G22C G30U, the self-cleavage came to 0.06. The value for A4C G5A G7C C23U was 0.89; that for A4C C18U G35C was 0.06; that for A4G A6C A14U A16U was 1.93. The value for A4C G19U U20A G22C was 0.06. The value for A4G A24C A26U C31A was 0.03. For the variant A4G A14U G19U G30A, the self-cleavage worked out at 0.06. The value for A4C G19C G40C was 0.02.

Turning to A4C G5A C18G G29U A41G G44A, the self-cleavage is 0.16.

For A4C C18U U32C U38G A41G, the self-cleavage is 0.03.

Turning to A4C C15U U28G C42G, the self-cleavage turned out to be 0.35.

Consider A4C G35A C37A C45U, for which the self-cleavage amounted to 0.05. For A4C G21C C23G G40U the value was 0.13; for A4C U20C G30A A41U, 0.01.

Turning to A4C U28A A39U, the self-cleavage was found to be 0.04. The value for A4G A6U C10G G35A was 0.03; that for A4C G21U G29U was 0.04.

As for A4C C23U G36U, the self-cleavage was 0.08. For A4G A11C G33C C42A the value was 0.02.

In the case of A4C U28A U34A U43C G44U C46A, the self-cleavage stood at 0.03. The value for A4C C10G C18U was 0.02; that for A4C G30A C37G was 0.3; that for A4C C10G G19C A24U was 0.02.

As for A4C G5C C13U A14U C18G, the self-cleavage amounted to 0.07. For A4C U9C A12C A16C A25U G35A C37U the value was 0.01. A4C U34C C46U: the self-cleavage is 0.05.

In the case of A4C G17C U38C, the self-cleavage worked out at 0.05. For the variant A4G A24U G30A G36U, the self-cleavage turned out to be 0.05.

Consider A4C C31G A39G G40U, for which the self-cleavage came to 0.16. The value for A4G A16U G35C G40U U43G was 0.06; that for A4C C13U A14G C31A was 0.01. The value for A4C C15U A16U was 0.02. The value for A4C C18G U20G U38G was 0.01. Turning to A4C U9A G19A G29U C31G G36C, the self-cleavage is 0.08. The value for A4G A24C G33A was 0.04; that for A4G A6C A25G A26U was 0.01; that for A4C C15G U28C C31G A39G was 0.13. As to A4C G7C A11C G33C U43A, the self-cleavage was determined as 0. A4C G5U G7A A11G C15U C18G C42A: the self-cleavage amounted to 0.06. For A4G A26C G30A C42G the value was 0.01. For A4G A6G U9A C31A the value was 0.02; for A4C C15G U20A G27C U28G, 0.01. For A4C U9G C37U the value was 0.06; for A4G A11C C23A, 0.01; for A4C G30U U43A, 0.07. As for A4C G19C U32A U34A C46G, the self-cleavage worked out at 0.19.

For the variant A4C C15U G29C A39C C45U, the self-cleavage was found to be 0.14.

With A4C G7C G17A C42A, the self-cleavage amounted to 0.17. On to A4C U20A A26G C46U, for which the self-cleavage was determined as 0.12. The value for A4G A25C G44C was 0. For A4G A11U G17U A26G C31A the value was 0.01; for A4C C18G G40A C45A, 0.04.

As to A4G A25C C42U, the self-cleavage is 0.04.

Regarding A4G A25G A41U, the self-cleavage amounted to 0.03. The value for A4C C18G U34C was 0.05. For A4C G19U C23A A25C the value was 0.06; for A4C G19U C31A U32C, 0. For A4C U9C A24U C42U the value was 0.08; for A4G A11C C13U C23G A26C, 0.04; for A4C G7A A12C, 0.21. A4C G5A C15U: the self-cleavage stood at 0.05. The value for A4G A14G G21U C23U U43A was 0.06; that for A4G A6G C10A G29U G36U A41C was 0; that for A4G A6G G36U A41G was 0.02. For A4C G17C G30C C31G the value was 0.02; for A4C C15G C18G, 0.03; for A4C G27C U32C U34C G44U C45U, 0.02. The value for A4G A24G G33A A41C C42U was 0.07. Consider A4C U20A C42G, for which the self-cleavage worked out at 0.08. The value for A4C G27A A41U was 0.5; that for A4C C18G G27U U43A was 0.05. Regarding A4C C15A C31G U38G, the self-cleavage turned out to be 0.03.

For A4G A12G G44U, the self-cleavage came out at 0.03.

Consider A4C G5A A16U, for which the self-cleavage is 0.08. The value for A4C G5A A16G was 0.04; that for A4G A6U C37A was 0.05. The value for A4C G5U C46A was 0.07; that for A4G A6C G17A C31A C37U was 0.07. The value for A4C C31G A41C was 0.04; that for A4C G5C G19A C37U was 0.13. As to A4G A6G U9C, the self-cleavage was determined as 0.04. The value for A4G A26C G33A was 0.12; that for A4C G17A C46G was 0.12. For A4G A12C G19U G30U G33C U38A, the self-cleavage was 0.12.

Turning to A4G A6G G17A U38A, the self-cleavage was determined as 0.04. Turning to A4C C23A G33C, the self-cleavage is 0.05. The value for A4G A12G C18A A26U C31A U34C was 0.08. For A4G A11C A12C G22U G33A A41G the value was 0.02. The value for A4C G5C U28G G40C was 0.07; that for A4C G7A A24U was 0.65.

For A4G A11U C15U U43G, the self-cleavage was 0. Take A4G A11C G29C C42U: the self-cleavage was determined as 0.01.

A4C U28G C46G: the self-cleavage stood at 0.32. For A4G A12G G17A A26G G27U C42A, the self-cleavage stood at 0.05. With A4G A6U G44C, the self-cleavage was determined as 0.15.

As for A4C G21A G22A A24G A26U G40A U43G, the self-cleavage amounted to 0.02. The value for A4C C10U C13G G27A C31U U43A was 0.01; that for A4C G33C G44C C46U was 0.03; that for A4C G27A U34C G40U C45U was 0.07. The value for A4C C18A C23U U28A G33C was 0.15; that for A4C G22A G40A was 0.09.

On to A4G A12U G29C, for which the self-cleavage is 0.03. For A4C G33A A41C the value was 0.03. For A4C C13U G22C G29C U38C G40U the value was 0.04. The value for A4C G7U C8U C10G G22U C23A C42G was 0.01; that for A4C G35A C46U was 0.05.

Turning to A4C G29A A39U G44C, the self-cleavage came out at 0.03.

In the case of A4C C31G G33C, the self-cleavage was 0.05. For A4C C37U A41C C42U the value was 0.06; for A4C C10G U32A, 0.02; for A4G A6U G17U G33U U38A C46A, 0.18. The value for A4G A6U A14G A16G A25G U28G was 0.06. For A4G A16U C31A the value was 0.03; for A4G A6G G7A U34A G36U C37U, 0.04; for A4C U9G G17C A24U U28G G33U G40A A41U, 0.01. Take A4C G35U C42A: the self-cleavage turned out to be 0.02. The value for A4C G22U A24U G27U G29U was 0.07; that for A4G A12G G19U C31U U34C G36A U43A was 0.02. For A4C G5A G40U the value was 0.71; for A4C G5A G40A, 0.05. Turning to A4C C13A C31G, the self-cleavage came to 0.31. For A4G A12G G33C the value was 0.06; for A4C G7U C18U C37A, 0.02.

Take A4C G5A G33U: the self-cleavage amounted to 0.25. Turning to A4C G17A G36A, the self-cleavage came out at 0.11.
